# Measured values as given in the BET-seq Pho4 binding data (Le et al. 2018).
# The list shows a part of the results. The energies were worked out here from pooled read counts, against the library average; single values are noisy.
# Biological target: T1, Pho4 (S. cerevisiae) (UniProt P07270)
# T1 sequence: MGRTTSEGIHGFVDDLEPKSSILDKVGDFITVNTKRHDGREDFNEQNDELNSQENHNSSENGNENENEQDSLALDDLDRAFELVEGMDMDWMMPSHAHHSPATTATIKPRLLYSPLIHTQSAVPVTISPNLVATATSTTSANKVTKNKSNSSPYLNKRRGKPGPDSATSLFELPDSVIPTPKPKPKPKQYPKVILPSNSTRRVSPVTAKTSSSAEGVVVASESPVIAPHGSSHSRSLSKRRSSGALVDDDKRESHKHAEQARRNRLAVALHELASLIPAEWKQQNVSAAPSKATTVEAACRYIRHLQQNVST
# Assay: relative binding free energy (BET-seq); higher = weaker binding
# Conditions: reference: library average
row,Sequence,relative binding free energy [kcal/mol]
1,TATGACACGTGGGGAG,-0.03
2,CTGGGCACGTGTTGAC,0.07
3,GTATGCACGTGATGGG,0.19
4,GAGGTCACGTGATTAT,0.24
5,TACGTCACGTGAGGAT,0.35
6,GGCCGCACGTGGCTGG,-0.1
7,TATGTCACGTGTGTAA,0.1
8,GTAGTCACGTGTCGCG,0.24
9,TGTAGCACGTGACATT,0.02
10,TGCTCCACGTGAGTGG,0.2
11,TTTATCACGTGGTTCA,0.07
12,TAGTTCACGTGAAAGG,0.21
13,ATAATCACGTGTATGG,0.15
14,TTTATCACGTGACTTG,0.21
15,ACTGGCACGTGTTTGA,-0.1
16,GGCTGCACGTGGTCGT,-0.08
17,GGACCCACGTGGGGGG,-0.34
18,TTACGCACGTGTGTTA,-0.11
19,CTTACCACGTGTGTGT,0
20,TGGGTCACGTGATCGA,0.28
21,GATAACACGTGCGGTG,0.06
22,CGGTTCACGTGGAGAG,0.24
23,TTAATCACGTGAGTTG,0.35
24,TGAAACACGTGATTAT,0.33
25,GTGAGCACGTGGGATA,-0.22
26,GTTTACACGTGGACTG,0.11

row,Sequence,relative binding free energy [kcal/mol]
1,AATTACACGTGGGCGT,-0.03
2,AGTGTCACGTGTGGAG,0.09
3,GGTTCCACGTGATATG,0.22
4,CATTTCACGTGTGAGC,0.47
5,AAAGTCACGTGTTATA,-0.02
6,CGTGTCACGTGAAGTG,0.24
7,GTAGGCACGTGAGTTT,0.18
8,GTGTTCACGTGCGGGG,0.2
9,TGTGTCACGTGTGTAC,0.06
10,GGATGCACGTGTGAAG,0.05
11,AGAGACACGTGGGTTG,-0.1
12,ACTTGCACGTGTTTTT,0.09
13,TGGTGCACGTGAAAGA,0.12
14,AGGACCACGTGAGTGG,0.07
15,AATTTCACGTGAATTA,0.37
16,TAGTTCACGTGGTGTC,0.17
17,TATATCACGTGTCTAG,0.19
18,TGCGGCACGTGGGCGC,-0.32
19,CCTGTCACGTGTGGAG,0.09
20,TGGCACACGTGGGGGT,0.01
21,TCTATCACGTGTTTGA,0.15
22,GCTTGCACGTGATAGG,0.08
23,TGCTTCACGTGTAGGC,0.16
24,AGGTTCACGTGTCGAG,0.36
25,GTGGTCACGTGGTTTA,0.13
26,GGCAGCACGTGTAAGG,-0.02

row,Sequence,relative binding free energy [kcal/mol]
1,TTTTACACGTGTCCTG,0.12
2,CAATGCACGTGTTGTG,0
3,TGGATCACGTGTTGCT,0.12
4,TTAGGCACGTGTAATG,-0.14
5,AATATCACGTGTGTAA,0.15
6,CAAATCACGTGGAGGG,0.13
7,AATTGCACGTGAAGGC,0.23
8,TTTGACACGTGTATTG,0.07
9,CAGTGCACGTGGGTCT,0.05
10,TCTGGCACGTGGGGTC,-0.14
11,TGGCACACGTGGAAGG,0.17
12,AATTTCACGTGCATGT,0.13
13,GTTGTCACGTGTAAAA,0.3
14,TCAAGCACGTGTAGTT,-0.08
15,TTTGACACGTGGATAC,0.08
16,TTCTGCACGTGTCTGT,0.06
17,GGAAACACGTGGGTCT,-0.01
18,ATTTACACGTGGGGCT,-0.08
19,CGAGACACGTGAGGTT,0.25
20,GTGTCCACGTGGCGGA,0.07
21,TGAATCACGTGGCTAG,0.22
22,TATTGCACGTGAGGGT,0.09
23,TCTTTCACGTGTGGCA,0.32
24,GGTGGCACGTGGGTTT,-0.06
25,GAGTGCACGTGGTCGT,-0.13
26,TGGGACACGTGTCCGT,0.14

row,Sequence,relative binding free energy [kcal/mol]
1,ATTTACACGTGTTGGA,0.1
2,ATTCTCACGTGGTGCG,0.23
3,GGGCGCACGTGAGTGC,0.13
4,TTTGGCACGTGGATTA,-0.09
5,GCTTTCACGTGGGTGC,0.16
6,AAGTACACGTGAGTTA,0.29
7,TGGCTCACGTGTGCGT,0.25
8,GCGATCACGTGAGAGT,0.45
9,GGTCGCACGTGTGAGC,0.24
10,GTGGCCACGTGGTGAG,-0.01
11,GCGGGCACGTGGCTGG,-0.1
12,CGAGCCACGTGGGTGT,-0.23
13,ATAGTCACGTGGGGCT,-0.07
14,GTTATCACGTGGGTCA,0.17
15,TTGATCACGTGTCGGT,0.15
16,GGCGGCACGTGTGCGG,-0.14
17,ACTGTCACGTGGGTCA,0
18,GCAATCACGTGTTGGG,0.21
19,TGGAACACGTGTATGA,0.06
20,GGTGCCACGTGATGGC,0.09
21,ATGTACACGTGAGTGG,0.22
22,AAGGGCACGTGTTTGT,-0.16
23,AGTTTCACGTGGGTCT,0.09
24,TGGCTCACGTGTGGGC,0.3
25,AGTAACACGTGGTTTC,-0.01
26,GGTCACACGTGTTTTA,0.19

row,Sequence,relative binding free energy [kcal/mol]
1,GGGGACACGTGAGATT,0.27
2,GGTAACACGTGGCGTG,-0.01
3,GGTATCACGTGTCGAT,0.22
4,GGCTGCACGTGTGTGC,-0.05
5,GTACGCACGTGCGTGG,-0.16
6,GGTGACACGTGTGGGC,0.11
7,CTGGGCACGTGGGCCA,-0.13
8,TTCGGCACGTGGATGC,-0.01
9,AGGGTCACGTGAAGTG,0.3
10,TATTGCACGTGGTATC,-0.07
11,GGGGTCACGTGCTGCA,0.1
12,GGGTGCACGTGGCTCG,-0.05
13,ATTTACACGTGAGGTC,0.39
14,TGTTACACGTGGAGCT,0.15
15,CGGTGCACGTGTTTGC,-0.01
16,GATTGCACGTGGGAAG,0.05
17,GGGTACACGTGAACGG,0.38
18,GGGCACACGTGAGGTT,0.32
19,TTTCGCACGTGGAGTG,-0.13
20,GAGTTCACGTGAATGA,0.52
21,GCTGACACGTGGTGGG,0.08
22,TAAGGCACGTGTGTAC,-0.07
23,ATAGTCACGTGTAGTT,-0.05
24,AAGTTCACGTGATATG,0.3
25,GGAATCACGTGGGTAT,0.04
26,AAAGTCACGTGTTGTA,0.1

row,Sequence,relative binding free energy [kcal/mol]
1,TTGTCCACGTGGTCGT,-0.2
2,GTATGCACGTGGTTTT,-0.03
3,GTTATCACGTGAGCTT,0.39
4,GTGGCCACGTGTTTGA,-0.17
5,GAGGTCACGTGGTCGA,0.08
6,TAAGGCACGTGGGGCA,-0.24
7,GGCATCACGTGTTTGG,0.14
8,TCATGCACGTGGCGGG,-0.14
9,TTGATCACGTGTAGTT,0.2
10,TGCAACACGTGGGATG,-0.06
11,TATGACACGTGATAGG,0.11
12,GTTCGCACGTGGTGAT,-0.08
13,GGCTGCACGTGAAGTG,0.36
14,TTTATCACGTGTTAGC,0.13
15,GGGTACACGTGATTTT,0.21
16,TATTACACGTGGGGTT,0.02
17,TTCGGCACGTGTGTAC,0.01
18,GGGGGCACGTGGGATC,-0.02
19,AGAAGCACGTGTTTAG,-0.09
20,TTTTACACGTGTGGGG,0.21
21,GAGGCCACGTGGTTGC,-0.03
22,CGTTTCACGTGATGTC,0.32
23,CTGGTCACGTGTAGCT,0.2
24,GTGGGCACGTGTGCTT,0.03
25,TGATGCACGTGTGAGC,0.11
26,GGGCTCACGTGAGGTA,0.31

row,Sequence,relative binding free energy [kcal/mol]
1,CTAGTCACGTGTTAAT,0.01
2,GCATGCACGTGTTGGG,0.04
3,TTATACACGTGTTGGG,-0.01
4,GCTATCACGTGTAGTT,0.15
5,TGTTGCACGTGGCGCA,-0.11
6,ATTAGCACGTGAGTTC,0.15
7,TTCTACACGTGGTTTG,0.11
8,ATAGGCACGTGGCAGG,-0.27
9,GCGGGCACGTGAAAGG,0.15
10,TTTTCCACGTGGTACG,0.07
11,ATTGGCACGTGCTTTA,-0.19
12,TTATGCACGTGTTTCG,-0.02
13,ACGTACACGTGTTTGG,-0.07
14,TATTTCACGTGGACTG,0.27
15,ACGTGCACGTGTGGGG,-0.05
16,ATAAGCACGTGATTCT,0.17
17,ATTGGCACGTGAGGCT,0.19
18,GTATACACGTGAATTT,0.38
19,CGTCACACGTGGGGGT,-0.11
20,TTTGTCACGTGAACAT,0.28
21,CTTAGCACGTGAAGTG,0.1
22,CCTGTCACGTGGATGG,0.03
23,CTTGGCACGTGAGAGT,-0.07
24,TAGGTCACGTGTCAGT,0.05
25,GTTTACACGTGAAGGA,0.31
26,ACGGGCACGTGCAGTG,-0.07

row,Sequence,relative binding free energy [kcal/mol]
1,TTTGCCACGTGAATTT,0.25
2,ATTTACACGTGTTTAA,0.05
3,TTCTTCACGTGTTAGG,0.36
4,GTTAACACGTGTGGTG,0.03
5,GTTGGCACGTGTTATA,-0.14
6,GAGTGCACGTGTGTTC,0.04
7,GTGTTCACGTGGTATT,0.34
8,TACGGCACGTGGTGTC,-0.22
9,AGTTGCACGTGATAGG,0.18
10,GAGGACACGTGAGGTG,0.23
11,CGTGGCACGTGAATTA,0.18
12,TAGATCACGTGGTGGT,0.08
13,CGCGCCACGTGGTGGG,-0.26
14,ATGAGCACGTGGGTGG,-0.22
15,AGGCGCACGTGAAGGG,0.18
16,TTATCCACGTGGCGGG,-0.07
17,GGTATCACGTGTTAAT,0.12
18,TTTGCCACGTGTTAGC,0.11
19,GTTTTCACGTGATAGA,0.47
20,CGGAACACGTGTTAGG,0
21,TTTTTCACGTGAAAAA,0.2
22,TATTGCACGTGGGAGT,-0.21
23,TGTTTCACGTGAGTCA,0.38
24,AGCCGCACGTGGGGTA,-0.24
25,GGTGGCACGTGATTGC,0.21
26,GATTGCACGTGTGAGG,0.11

row,Sequence,relative binding free energy [kcal/mol]
1,AGTGTCACGTGTACGT,-0.01
2,TTGTGCACGTGGGGTA,-0.27
3,AGGATCACGTGGTCTT,0.18
4,GTAGGCACGTGGGGCG,-0.17
5,TGTGGCACGTGATTAA,0.02
6,TATGACACGTGTTGAG,-0.01
7,GATTGCACGTGAAATG,0.21
8,ATTAACACGTGCAGGT,0.04
9,TTTGTCACGTGTGTCA,0.16
10,GGTTACACGTGCGAGT,0.08
11,TCAGGCACGTGCAGTT,-0.06
12,ATATACACGTGATTGG,0.04
13,ACGGTCACGTGTGGTA,0.12
14,AAGATCACGTGGGGCG,0.11
15,CGCGGCACGTGGATGG,-0.02
16,TGTGGCACGTGAAACT,0.11
17,CATGGCACGTGGTTGC,-0.08
18,GGGCGCACGTGTGCTG,0.01
19,GTTTGCACGTGTCGCT,0.04
20,ATTTACACGTGTCTAG,0.09
21,GGTTTCACGTGGGCTT,0.28
22,CATGTCACGTGATTGG,0.17
